{"source": "the supplement of paper PMC10338343", "note": "± gives the standard deviation. Over roughly 5,500 sequences, “pre-steady-state target cleavage rate” has its median near 0.1; the highest 2% begin near 0.64. This is a selection; strong and weak results do not stand in their true shares.", "data": [{"test_system": "MIWI (PIWIL1) piRISC loaded with piRNA #2 (30 nt)", "assay": "pre-steady-state target cleavage rate (min^-1); MIWI and MILI are mouse PIWI proteins and EfPiwi is from a freshwater sponge; tags in brackets are library labels; higher = faster piRNA-guided slicing of the target", "conditions": "guide: piRNA #2 5'p-UUAGGUAACCCAGUAGAUCCAGAGGAAUUC; auxiliary factor: 500 nM mouse GTSF1", "in_short": "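The method was Cleave-'n-Seq, in which uncleaved targets from a transcribed, DNA-blocked target RNA library were sequenced after exposure to active affinity-purified piRISC carrying one synthetic guide, with or without GTSF1 partner protein. Reactions contained 0.1 nM library, 1 nM piRISC and, where present, 500 nM GTSF1 in HEPES–potassium acetate buffer at 33 °C for 0–8 or 0–960 min. Reads were normalised to depth and to weakly complementary targets, three trials were pooled, and k3 was capped at 0.0001 min^-1. The pre-steady-state cleavage rate came from a burst-and-steady-state fit.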", "values": [{"sequence": "CUUUUCCUCUGGAUGUACUGGGUAACCUAA", "pre-steady-state target cleavage rate": "0.139 ± 0.032"}, {"sequence": "CUUUUGCUCUGGAUCUACUGGGUUACGUAA", "pre-steady-state target cleavage rate": "0.43 ± 0.036"}, {"sequence": "CUAUUCCUCUGUAUCUACUGGGUUACCUAA", "pre-steady-state target cleavage rate": "0.404 ± 0.048"}, {"sequence": "CUUAAGGUCUGGAUCUAGUGGGUUAGCUAA", "pre-steady-state target cleavage rate": "0.0201 ± 0.0071"}, {"sequence": "GAAUUCCUCUGGAUCUAGUGGGUUACCAAA", "pre-steady-state target cleavage rate": "0.134 ± 0.019"}, {"sequence": "CUAUUCCUCUGGAUCUACUGUGUUACCUAA", "pre-steady-state target cleavage rate": "0.696 ± 0.073"}, {"sequence": "CUUAAGCUCUGGAUGUACUGGGUUACCUUA", "pre-steady-state target cleavage rate": "0.146 ± 0.02"}, {"sequence": "GAAUUCCUCUGGAUCAACUGGGUUACCUUA", "pre-steady-state target cleavage rate": "0.208 ± 0.039"}, {"sequence": "CUUAAGCUCUGGAUCGACUGGGUUACCUAA", "pre-steady-state target cleavage rate": "0.103 ± 0.015"}, {"sequence": "CUUAUCCUCUGGUAGUACUGGGUUACCUAA", "pre-steady-state target cleavage rate": "0.165 ± 0.021"}, {"sequence": "CUUAUCCUGUGGAUCUACUGGCUUACCUAA", "pre-steady-state target cleavage rate": "0.0566 ± 0.02"}, {"sequence": "GAAUUCCUCUGGAUCUACUGGCAUACCUAA", "pre-steady-state target cleavage rate": "0.00471 ± 0.003"}, {"sequence": "CUUAUCCUCUGAAUCUACUGGGUUACCUAA", "pre-steady-state target cleavage rate": "0.214 ± 0.03"}, {"sequence": "CUUAACGUCUGGAUCUAGUGGGUUACCUAA", "pre-steady-state target cleavage rate": "0.0606 ± 0.0092"}, {"sequence": "CUUAAGGUCUGGAUCUAGUGGGUUACGUAA", "pre-steady-state target cleavage rate": "0.124 ± 0.021"}, {"sequence": "GAAUUCCUCUGCAUCUACUGGGUUACCUAA", "pre-steady-state target cleavage rate": "0.421 ± 0.051"}, {"sequence": "CUUAAGGUCUGGAUCUACUGGGUUACCUUA", "pre-steady-state target cleavage rate": "0.118 ± 0.016"}, {"sequence": "CUUAAGCUCUCGAUCUACUGGGUUAGCUAA", "pre-steady-state target cleavage rate": "0.0646 ± 0.014"}, {"sequence": "CAAUUCCUCUGCAUCUACAGGGUUACCUAA", "pre-steady-state target cleavage rate": "0.291 ± 0.029"}, {"sequence": "CAAUUCCUCUGCAUCUAGUGGGUUACCUAA", "pre-steady-state target cleavage rate": "0.211 ± 0.02"}, {"sequence": "CUUAAGCUCUGGAUCUACAGGGUUUCCUAA", "pre-steady-state target cleavage rate": "0.0598 ± 0.0086"}, {"sequence": "CUUUUCCUCUGGUUCUAGUGGGUUACCUAA", "pre-steady-state target cleavage rate": "0.177 ± 0.02"}, {"sequence": "CAAUUCCUCUGGAACUACUGGGUAACCUAA", "pre-steady-state target cleavage rate": "0.235 ± 0.035"}, {"sequence": "CUUAAGGAGAGGAUGCUACUGGGUUACCUAA", "pre-steady-state target cleavage rate": "0.00368 ± 0.0029"}, {"sequence": "CUUAUGCCUCUGGAUCUACUGGGUUACCUAA", "pre-steady-state target cleavage rate": "0.198 ± 0.028"}, {"sequence": "CUUUAGCUCUGGAUCUACUGGGUUACCUAA", "pre-steady-state target cleavage rate": "0.113 ± 0.022"}, {"sequence": "CUUAAGGUCUGGAUCUUCUGGGUUACCAAA", "pre-steady-state target cleavage rate": "0.0379 ± 0.015"}, {"sequence": "CAAUACCUCUGGAUCUACUGGGUUACCUUA", "pre-steady-state target cleavage rate": "0.36 ± 0.061"}, {"sequence": "GAAUUCCUCUGGAUCCACUGGGUUACCUAA", "pre-steady-state target cleavage rate": "0.249 ± 0.047"}, {"sequence": "CUUUUCCUCUGGAUCUACUGGCGUUACCUAA", "pre-steady-state target cleavage rate": "0.0048 ± 0.0024"}, {"sequence": "CUUAAGGUCUGGAUCUACUGGGUUACCUAG [g2:g23:cont:t1G]", "pre-steady-state target cleavage rate": "0.167 ± 0.018"}, {"sequence": "CAAUACCUCUGGAACUACUGGGUUACCUAA", "pre-steady-state target cleavage rate": "0.446 ± 0.04"}, {"sequence": "CAUUUCCUCUGGAUCUACUGGGUUACCAAA", "pre-steady-state target cleavage rate": "0.607 ± 0.077"}, {"sequence": "CUUAAGCAGUGGAUCUACUGGGUUACCUAA", "pre-steady-state target cleavage rate": "0.161 ± 0.018"}, {"sequence": "CUUAUCCUCUGCAUCUACAGGGUUACCUAA", "pre-steady-state target cleavage rate": "0.19 ± 0.016"}, {"sequence": "GAAUUCCUCUGGAUCUACAGGGUUACGUAA", "pre-steady-state target cleavage rate": "0.285 ± 0.028"}, {"sequence": "GAAUUCCUGUGGAUCUUCUGGGUUACCUAA", "pre-steady-state target cleavage rate": "0.24 ± 0.046"}, {"sequence": "CUUAAGGUCUGUAUCUACUGGGUUACCUAA", "pre-steady-state target cleavage rate": "0.15 ± 0.049"}, {"sequence": "CUUAAGGUCUGGAACUACUGGGUUAGCUAA", "pre-steady-state target cleavage rate": "0.0612 ± 0.029"}, {"sequence": "CUUAUCCUCAGGAUCUACUGGGUUACGUAA", "pre-steady-state target cleavage rate": "0.529 ± 0.064"}, {"sequence": "CUUUUGCUCUGGAUCUACUGGCUUACCUAA", "pre-steady-state target cleavage rate": "0.0593 ± 0.0096"}, {"sequence": "CAAUUCCUCUGGAUCUACUGGGUUACCGAA", "pre-steady-state target cleavage rate": "0.275 ± 0.049"}, {"sequence": "CUUAAGCUCUGCAUCUACUGGGUUACCUAA", "pre-steady-state target cleavage rate": "0.162 ± 0.03"}, {"sequence": "GAAUUCCUCUGGAUCUACUGGGUUACCUUA", "pre-steady-state target cleavage rate": "0.224 ± 0.041"}, {"sequence": "CUUAAGGAGUGAGAUCUACUGGGUUACCUAA", "pre-steady-state target cleavage rate": "0.01 ± 0.0054"}, {"sequence": "CUUUUCCUCUGGAUCUACUGGGUUACCUAC [g2:g27:cont:t1C]", "pre-steady-state target cleavage rate": "0.31 ± 0.038"}, {"sequence": "CUUAACCUCUGGGAUCUACUGGGUUACCUAA", "pre-steady-state target cleavage rate": "0.327 ± 0.024"}, {"sequence": "CUAUUCCUCUGGAUCUAGUGGGAUACCUAA", "pre-steady-state target cleavage rate": "0.0784 ± 0.013"}, {"sequence": "CUAUUCCACUGGAUCAACUGGGUUACCUAA", "pre-steady-state target cleavage rate": "0.473 ± 0.041"}, {"sequence": "CUUUUCCUCUGGAAUCUACUGGGUUACCUAA", "pre-steady-state target cleavage rate": "0.328 ± 0.037"}, {"sequence": "CAAUUCCUCUGGAUCUACGGGGUUACCUAA", "pre-steady-state target cleavage rate": "0.1 ± 0.012"}, {"sequence": "CUUAAGGUCUGGAUCUAGUGGGUUACCUUA", "pre-steady-state target cleavage rate": "0.0513 ± 0.011"}, {"sequence": "CUUUUCCUCUGGUUCAACUGGGUUACCUAA", "pre-steady-state target cleavage rate": "0.453 ± 0.037"}, {"sequence": "CUUAAGGAGUGGAUCUACAGGGUUUCCUAA", "pre-steady-state target cleavage rate": "0.0043 ± 0.0022"}, {"sequence": "CUAUUCCUCUGGAUGAUCUGGGUUACCUAA", "pre-steady-state target cleavage rate": "0.0129 ± 0.0054"}, {"sequence": "CUUAACCUCAGGAACUACUGGGUUACCUAA", "pre-steady-state target cleavage rate": "0.525 ± 0.034"}, {"sequence": "CUUAACCUCUCCAUCUACUGGGUUACCUAA", "pre-steady-state target cleavage rate": "0.398 ± 0.04"}, {"sequence": "GAAUUCCUCUCGAUCUACUCGGUUACCUAA", "pre-steady-state target cleavage rate": "0.123 ± 0.018"}, {"sequence": "CUUAACCUCUGCUACUACUGGGUUACCUAA", "pre-steady-state target cleavage rate": "0.282 ± 0.031"}, {"sequence": "CUUUUCCUCUGGAUCUACUGGGUUAGCUAA", "pre-steady-state target cleavage rate": "0.303 ± 0.046"}, {"sequence": "CUAUUCCUCUGGAUCUACUGGGUGUACCUAA", "pre-steady-state target cleavage rate": "0.311 ± 0.044"}, {"sequence": "CUUAUCGUCUGGAUCUACUGGCUUACCUAA", "pre-steady-state target cleavage rate": "0.0903 ± 0.034"}, {"sequence": "CUUAUCCUCUGGUUCUACAGGGUUACCUAA", "pre-steady-state target cleavage rate": "0.269 ± 0.03"}, {"sequence": "CUAUUCCUCAUGGAUCUACUGGGUUACCUAA", "pre-steady-state target cleavage rate": "0.582 ± 0.06"}, {"sequence": "CUUAAGGUCUGGAUCUACUGGGUUACUAA", "pre-steady-state target cleavage rate": "0.0698 ± 0.014"}, {"sequence": "CAAUUCCACUGGAUCUACUGGGUUUCCUAA", "pre-steady-state target cleavage rate": "0.401 ± 0.056"}, {"sequence": "CUUAACCUCUGAGAUCUACUGGGUUACCUAA", "pre-steady-state target cleavage rate": "0.266 ± 0.026"}, {"sequence": "CUUAUCCACUGGAUGUACUGGGUUACCUAA", "pre-steady-state target cleavage rate": "0.417 ± 0.05"}, {"sequence": "CUUAAGGAGACCUUCUAGUCGGUUACCUAA", "pre-steady-state target cleavage rate": "< 0.0001"}, {"sequence": "CUUUUCCUCAUGGAUCUACUGGGUUACCUAA", "pre-steady-state target cleavage rate": "0.436 ± 0.052"}, {"sequence": "CUAUUCCUCUGGAUCUACUGGGUAAGCUAA", "pre-steady-state target cleavage rate": "0.0968 ± 0.031"}, {"sequence": "CUUAUCCUCUGGAUGUACAGGGUUACCUAA", "pre-steady-state target cleavage rate": "0.445 ± 0.026"}]}]}
